T1: RBFOX1 RRM (Homo sapiens, UniProt Q9NWB1 109-208)
T1 sequence: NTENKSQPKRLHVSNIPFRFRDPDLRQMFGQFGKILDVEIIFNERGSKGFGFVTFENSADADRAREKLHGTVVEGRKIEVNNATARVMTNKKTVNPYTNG

B1: ACUGAAC (DNA:RNA)
RNA: GGGAGACCGGAAUUCAGAUUGUCCACUGAACUUAAAUCCCGUCGUAGCCACCA
DNA 1: CAATCTGAATTCCGGTCTCCC
DNA 2: TGGTGGCTACGACGGGATT
B2: UUAGUAC (DNA:RNA)
RNA: B1 RNA with A25U, C26U, U27A, A29U
DNA 1: CAATCTGAATTCCGGTCTCCC
DNA 2: TGGTGGCTACGACGGGATT
B3: GUAUGAU (DNA:RNA)
RNA: B1 RNA with A25G, C26U, U27A, G28U, A29G, C31U
DNA 1: CAATCTGAATTCCGGTCTCCC
DNA 2: TGGTGGCTACGACGGGATT
B4: CUAGAUU (DNA:RNA)
RNA: B1 RNA with A25C, C26U, U27A, A30U, C31U
DNA 1: CAATCTGAATTCCGGTCTCCC
DNA 2: TGGTGGCTACGACGGGATT
B5: CCCCUCG (DNA:RNA)
RNA: B1 RNA with A25C, U27C, G28C, A29U, A30C, C31G
DNA 1: CAATCTGAATTCCGGTCTCCC
DNA 2: TGGTGGCTACGACGGGATT
B6: CGUAGAU (DNA:RNA)
RNA: B1 RNA with A25C, C26G, G28A, A29G, C31U
DNA 1: CAATCTGAATTCCGGTCTCCC
DNA 2: TGGTGGCTACGACGGGATT
B7: GUCGAGC (DNA:RNA)
RNA: B1 RNA with A25G, C26U, U27C, A30G
DNA 1: CAATCTGAATTCCGGTCTCCC
DNA 2: TGGTGGCTACGACGGGATT
B8: GCGUGCA (DNA:RNA)
RNA: B1 RNA with A25G, U27G, G28U, A29G, A30C, C31A
DNA 1: CAATCTGAATTCCGGTCTCCC
DNA 2: TGGTGGCTACGACGGGATT
B9: GAUGGGG (DNA:RNA)
RNA: B1 RNA with A25G, C26A, A29G, A30G, C31G
DNA 1: CAATCTGAATTCCGGTCTCCC
DNA 2: TGGTGGCTACGACGGGATT
B10: UAUAGGG (DNA:RNA)
RNA: B1 RNA with A25U, C26A, G28A, A29G, A30G, C31G
DNA 1: CAATCTGAATTCCGGTCTCCC
DNA 2: TGGTGGCTACGACGGGATT
B11: AGCAAUG (DNA:RNA)
RNA: B1 RNA with C26G, U27C, G28A, A30U, C31G
DNA 1: CAATCTGAATTCCGGTCTCCC
DNA 2: TGGTGGCTACGACGGGATT
B12: ACCGUAU (DNA:RNA)
RNA: B1 RNA with U27C, A29U, C31U
DNA 1: CAATCTGAATTCCGGTCTCCC
DNA 2: TGGTGGCTACGACGGGATT
B13: GGGGCUU (DNA:RNA)
RNA: B1 RNA with A25G, C26G, U27G, A29C, A30U, C31U
DNA 1: CAATCTGAATTCCGGTCTCCC
DNA 2: TGGTGGCTACGACGGGATT
B14: AGAGUCA (DNA:RNA)
RNA: B1 RNA with C26G, U27A, A29U, A30C, C31A
DNA 1: CAATCTGAATTCCGGTCTCCC
DNA 2: TGGTGGCTACGACGGGATT
B15: GAGUGGC (DNA:RNA)
RNA: B1 RNA with A25G, C26A, U27G, G28U, A29G, A30G
DNA 1: CAATCTGAATTCCGGTCTCCC
DNA 2: TGGTGGCTACGACGGGATT
B16: UGCGACU (DNA:RNA)
RNA: B1 RNA with A25U, C26G, U27C, A30C, C31U
DNA 1: CAATCTGAATTCCGGTCTCCC
DNA 2: TGGTGGCTACGACGGGATT
B17: AGAUGGC (DNA:RNA)
RNA: B1 RNA with C26G, U27A, G28U, A29G, A30G
DNA 1: CAATCTGAATTCCGGTCTCCC
DNA 2: TGGTGGCTACGACGGGATT
B18: ACUUUGA (DNA:RNA)
RNA: B1 RNA with G28U, A29U, A30G, C31A
DNA 1: CAATCTGAATTCCGGTCTCCC
DNA 2: TGGTGGCTACGACGGGATT
B19: AGCUGUG (DNA:RNA)
RNA: B1 RNA with C26G, U27C, G28U, A29G, A30U, C31G
DNA 1: CAATCTGAATTCCGGTCTCCC
DNA 2: TGGTGGCTACGACGGGATT
B20: GAAGUCA (DNA:RNA)
RNA: B1 RNA with A25G, C26A, U27A, A29U, A30C, C31A
DNA 1: CAATCTGAATTCCGGTCTCCC
DNA 2: TGGTGGCTACGACGGGATT
B21: ACCGGUU (DNA:RNA)
RNA: B1 RNA with U27C, A29G, A30U, C31U
DNA 1: CAATCTGAATTCCGGTCTCCC
DNA 2: TGGTGGCTACGACGGGATT
B22: AUCUGUG (DNA:RNA)
RNA: B1 RNA with C26U, U27C, G28U, A29G, A30U, C31G
DNA 1: CAATCTGAATTCCGGTCTCCC
DNA 2: TGGTGGCTACGACGGGATT
B23: GGCGACU (DNA:RNA)
RNA: B1 RNA with A25G, C26G, U27C, A30C, C31U
DNA 1: CAATCTGAATTCCGGTCTCCC
DNA 2: TGGTGGCTACGACGGGATT
B24: UGCCUUC (DNA:RNA)
RNA: B1 RNA with A25U, C26G, U27C, G28C, A29U, A30U
DNA 1: CAATCTGAATTCCGGTCTCCC
DNA 2: TGGTGGCTACGACGGGATT
B25: GGUGGCA (DNA:RNA)
RNA: B1 RNA with A25G, C26G, A29G, A30C, C31A
DNA 1: CAATCTGAATTCCGGTCTCCC
DNA 2: TGGTGGCTACGACGGGATT
B26: UGUGAAA (DNA:RNA)
RNA: B1 RNA with A25U, C26G, C31A
DNA 1: CAATCTGAATTCCGGTCTCCC
DNA 2: TGGTGGCTACGACGGGATT
B27: CCGGGAU (DNA:RNA)
RNA: B1 RNA with A25C, U27G, A29G, C31U
DNA 1: CAATCTGAATTCCGGTCTCCC
DNA 2: TGGTGGCTACGACGGGATT
B28: AUCCGAG (DNA:RNA)
RNA: B1 RNA with C26U, U27C, G28C, A29G, C31G
DNA 1: CAATCTGAATTCCGGTCTCCC
DNA 2: TGGTGGCTACGACGGGATT
B29: GCUGAUC (DNA:RNA)
RNA: B1 RNA with A25G, A30U
DNA 1: CAATCTGAATTCCGGTCTCCC
DNA 2: TGGTGGCTACGACGGGATT
B30: AUGUGGA (DNA:RNA)
RNA: B1 RNA with C26U, U27G, G28U, A29G, A30G, C31A
DNA 1: CAATCTGAATTCCGGTCTCCC
DNA 2: TGGTGGCTACGACGGGATT
B31: CUGGUCU (DNA:RNA)
RNA: B1 RNA with A25C, C26U, U27G, A29U, A30C, C31U
DNA 1: CAATCTGAATTCCGGTCTCCC
DNA 2: TGGTGGCTACGACGGGATT

Substitutions are numbered along the chain they refer to; changes in the protein carry UniProt numbers. This is one part of the list.

In this assay the target is T1, RBFOX1 RRM. The assay is described as follows: EMSA; HiTS-Eq, 1 nM pool, 10 min; buffer printed only for the single-RNA assays: 10 mM Tris pH 7.5, 150 mM NaCl, 3.4 mM EDTA, 0.001% NP-40, 30 C. The note with it: tags: His6 N-terminal (pET28a); label: 5' 32P. An outline of the steps:
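Purified RbFox RRM (wild type or mutant) was equilibrated for 10 min in 50 µL with 1 nM of a 5′-radiolabelled pool of RNA with 7 randomized nucleotides, its flanks annealed to DNA oligonucleotides, across increasing protein concentrations. Free RNA was separated by 8% native PAGE, excised, reverse-transcribed, PCR-barcoded and sequenced on an Illumina HiSeq 2500. Relative association constants came from read-count changes of each variant against the control reaction, normalised to the cognate motif.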
(In general: In EMSA bound probe runs differently from free probe, usually more slowly.)
Regarding B1, the binding signal was 0.0093 KA relative to UGCAUGU.
Turning to B2, the binding signal was 0.00923 KA relative to UGCAUGU.
For B3 the value was 0.0134 KA relative to UGCAUGU.
Take B4: the binding signal is 0.0063 KA relative to UGCAUGU.
The figure for B5 is 0.0119 KA relative to UGCAUGU; for B6 it is 0.00673 KA relative to UGCAUGU.
The figure for B7 is 0.015 KA relative to UGCAUGU; for B8 it is 0.0222 KA relative to UGCAUGU; for B9 it is 0.0176 KA relative to UGCAUGU.
For B10 the value was 0.00266 KA relative to UGCAUGU; for B11, 0.0115 KA relative to UGCAUGU; for B12, 0.00208 KA relative to UGCAUGU.
In the case of B13, the binding signal is 0.033 KA relative to UGCAUGU.
For B14 the value was 0.00503 KA relative to UGCAUGU; for B15, 0.0137 KA relative to UGCAUGU; for B16, 0.0153 KA relative to UGCAUGU.
The figure for B17 is 0.0111 KA relative to UGCAUGU.
In the case of B18, the binding signal is 0.0123 KA relative to UGCAUGU.
For B19 the value was 0.0194 KA relative to UGCAUGU; for B20, 0.00633 KA relative to UGCAUGU; for B21, 0.00787 KA relative to UGCAUGU.
For the molecule B22, the binding signal is 0.0171 KA relative to UGCAUGU.
Take B23: the binding signal is 0.0113 KA relative to UGCAUGU.
For B24 the value was 0.0226 KA relative to UGCAUGU.
As to B25, the binding signal is 0.016 KA relative to UGCAUGU.
With B26, the binding signal was 0.0152 KA relative to UGCAUGU.
The figure for B27 is 0.0168 KA relative to UGCAUGU; for B28 it is 0.00535 KA relative to UGCAUGU; for B29 it is 0.0189 KA relative to UGCAUGU.
With B30, the binding signal is 0.00591 KA relative to UGCAUGU.
Consider B31, for which the binding signal was 0.0225 KA relative to UGCAUGU.

The values are drawn from paper PMC9911399, “Two distinct binding modes provide the RNA-binding protein RbFox with extraordinary sequence specificity”.
